# Where “and” joins values, the source holds several entries; their conditions need not be identical. Identical values can stand only once. Among all 360,000 compounds or so, about 2,600 (0.72%) were called active. Inconclusive means that the source gave no clear call. Such entries were picked first, then a sample of the others. Calls follow the shape of the dose curve; as a rule, active = well fitted inhibition curve with a large enough effect; inconclusive = small, poorly fitted or top-dose-only effect; inactive = no such curve, though single readings can be large or run the other way. Where the call is inconclusive, the potency comes from a doubtful curve fit. The source holds several records for some structures; these can differ, active in one and inactive in another.
# Test: Primary qHTS for Inhibitors of ATXN expression; also: nearly all actives have a fitted effect of over 55% in size
# Details: HEK-293 ATXN2-luciferase reporter, luminescence, 24 h; activity change, negative = inhibition: at 57 µM (top of the series)
# Procedure, shortened: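 ATXN2-luciferase reporter cells (luciferase flanked by upstream and downstream ATXN2 gene portions) were treated 24 h at 37 °C with compounds at up to 57 uM. SteadyGlo luminescence gave expression; GF-AFC fluorescence gave viability.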
# % is scaled to controls: 0 for no effect and ±100 for the full control effect; potency is read from the fitted curve at half-maximal effect; tags tell the direction and shape of the fitted curve.
Compound,Potency,"activity change, negative = inhibition"
CCN(c1ccccc1)S(=O)(=O)c1cc(C(=O)Nc2ccc(Br)cc2)ccc1F,"inconclusive: 14.1 µM [inhibitor, partial curve, poor fit]",
O=[N+]([O-])c1cc(/C=N/n2c(-c3ccncc3)n[nH]c2=S)ccc1Cl,"inconclusive: 3.16 µM [inhibitor, partial curve]",
COc1ccc(NS(=O)(=O)c2ccc(O)c(NC(=O)c3cc4c(C)nn(-c5ccc(F)cc5)c4s3)c2)cc1,"inconclusive: 15.8 µM [inhibitor, partial curve]",
COc1cc(NC(=O)CCCSc2nc(-c3ccco3)cc(C(F)(F)F)n2)cc(OC)c1OC,"inconclusive: 39.8 µM [inhibitor, single point]",
CSc1ccc(Cl)c(C(=O)Nc2cc(S(=O)(=O)N3CCOCC3)ccc2N2CCOCC2)c1,inactive,
O=C(NNc1ccccc1[N+](=O)[O-])Nc1ccc(Cl)c(Cl)c1,inactive,
CC(C)(C)C(=O)Cn1ncc(Br)c(Br)c1=O,"inconclusive: 33.6 µM [inhibitor, single point]",
COc1cccc(Cn2c(SCc3ccc(C(=O)N4CCC(C)CC4)cc3)nc3ccncc32)c1,"inconclusive: 39.8 µM [inhibitor, single point]",
Cc1ccc(/C=C/C(=O)Nc2cccc(S(=O)(=O)N3CCOCC3)c2)o1,inactive,
COc1cccc(C(C)(O)c2nc(-c3cccs3)cs2)c1 (stereo not given),inactive,
S=C(NCc1ccco1)N1CCN(c2nc(-c3ccc(Cl)cc3)cs2)CC1,"inconclusive: 13.4 µM [inhibitor, partial curve]",
c1ccc(Nc2nc(N3CCCCC3)nc(N3CCCCC3)n2)cc1,inactive,
COc1ccc(-n2nc(C(=O)NCC(=O)Nc3cccc(Cl)c3)c3ccccc3c2=O)cc1OC,"inconclusive: 11.9 µM [inhibitor, partial curve, poor fit]",
COc1ccc2cc(-c3[nH]ncc3CNCCn3nc(C)cc3C)ccc2c1,"inconclusive: 5.97 µM [inhibitor, partial curve, poor fit]",
O=S(=O)(Nc1ccc(-c2ccc3nncn3n2)cc1)c1cc(F)ccc1F,inactive,
COc1ccc(N(C)S(=O)(=O)c2cccc(C(=O)Nc3cccc(C(=O)NC4CC4)c3)c2)cc1,"inconclusive: 39.8 µM [inhibitor, single point]",
O=C(CC1CS(=O)(=O)CC1CC(=O)Nc1ccc2c(c1)OCCO2)Nc1ccc2c(c1)OCCO2 (stereo not given),"inconclusive: 0.377 µM [inhibitor, full curve, poor fit]",
CCOC(=O)c1c(NC(=S)Nc2ccccc2)sc2c1CCCCC2,inactive,
Cc1ccc2[nH]c(=O)c(CN(Cc3ccco3)S(=O)(=O)c3c(C)ccc4nsnc34)cc2c1,"inconclusive: 10 µM [inhibitor, partial curve]",
CC1=CC(C)(C)Nc2ccc(OC(=O)CN3C(=O)c4ccccc4C3=O)cc21,active: 28.2 µM,
CCOC(=O)N1CCN(C(=O)c2ccc(Oc3ccc([N+](=O)[O-])cc3)cc2)CC1,"inconclusive: 37.7 µM [inhibitor, partial curve, poor fit]",
Cc1oc2ncn(C)c(=O)c2c1C(=O)NCCCN(Cc1ccccc1)C(C)C,inactive,

Compound,Potency,"activity change, negative = inhibition"
CCc1ccc(C2NC(=O)c3[nH]nc(-c4cccc(OC)c4)c32)cc1 (stereo not given),"inconclusive: 39.8 µM [inhibitor, single point]",
CN1CCN(c2ccc3nc(-c4c(N)c5c(F)cccc5[nH]c4=O)[nH]c3c2)CC1,"inconclusive: 38.5 µM [inhibitor, single point]",
Cc1ccc(CNC(=O)C(=O)NCC(c2cccnc2)N2CCN(c3ccccc3F)CC2)cc1 (stereo not given),"inconclusive: 10 µM [inhibitor, partial curve]",
CCC(=O)NC(c1ccc([N+](=O)[O-])cc1)c1c(O)ccc2ccccc12 (stereo not given),inactive,
COC(=O)c1c(NC(=O)/C=C/C(=O)O)sc(C)c1-c1ccc(C)c(C)c1,"inconclusive: 39.8 µM [inhibitor, single point]",
Cc1ccc(C(=O)N/C(=C\c2ccc(C(C)C)cc2)C(=O)NCCCN2CCOCC2)cc1,inactive,
O=C(Nc1ccc(F)c(F)c1)C1CCCN1S(=O)(=O)c1cccc2nsnc12 (stereo not given),inactive,
CC(=O)N1c2ccccc2N2C(c3c(C)c(C)cc(C)c3C)=NON12,"inconclusive: 11.9 µM [inhibitor, partial curve, poor fit]",
Cc1cccc(C)c1NC(=O)CN(C)C(=O)c1cccc(S(=O)(=O)N2CCN(c3ccc(F)cc3)CC2)c1,"inconclusive: 17.8 µM [inhibitor, partial curve, poor fit]",
CC(C)Cc1ccc(C(C)C(N)=NCCc2ccccc2)cc1 (stereo not given),,inconclusive: -94.6% [inhibitor]
C=CCn1c(SCC(=O)Nc2ccc(N3CCOCC3)cc2)nnc1-c1ccco1,inactive,
CN(C)CC1CCC/C(=C/c2ccc(Cl)cc2)C1=O (stereo not given),"inconclusive: 5.32 µM [inhibitor, single point]",
O=C1OCC2=C1C(c1ccc3c(c1)OCO3)c1cc3c(cc1O2)OCO3 (stereo not given),"inconclusive: 10 µM [inhibitor, partial curve, poor fit]",
C=C1C(=O)O[C@H]2[C@@H]1CCC(C)=CCC[C@@]1(C)O[C@@H]21,"inconclusive: 43.2 µM [inhibitor, single point]",
NC(=O)CC(NC(=O)Cc1ccc(Br)cc1)c1ccc(N2CCN(c3ccc(F)cc3)CC2)c([N+](=O)[O-])c1 (stereo not given),"inconclusive: 39.8 µM [inhibitor, partial curve, poor fit]",
COc1cc(C(=O)Nc2ccc(-c3nnc(-c4ccco4)o3)cc2)cc(OC)c1OC,inactive,
O=C(Nc1ccccc1)C1=C[C@H](c2ccc(C(F)(F)F)cc2)C[C@H](OCCCCO)O1,inactive,
CCCCCCN1C[C@@H](n2cc(COC(=O)c3ccccc3)nn2)[C@H](O)C[C@@H]1c1ccc(OC)cc1,"inconclusive: 39.8 µM [inhibitor, single point]",
COc1ccc2c(c1)CC/C(=C\c1ccc(OC)c(Cn3nc(C)cc3C)c1)C2=O,"inconclusive: 22.4 µM [inhibitor, single point]",
CCN(CC)c1ccc(/C=N/NC(=O)c2ccco2)c(O)c1,"inconclusive: 2.82 µM [inhibitor, full curve, poor fit]",
O=C1C2C(c3ccccc3)CC=CC2[C@H](c2ccc(C(F)(F)F)cc2)N1Cc1ccccc1 (stereo not given in full),"inconclusive: 39.8 µM [inhibitor, single point]",
CC(C)C[C@@H](CN1CCCC1CN1C(=S)NC[C@@H]1Cc1ccccc1)N1C[C@H](Cc2ccccc2)N(CC2CCCCC2)C1=S (stereo not given in full),"inconclusive: 28.2 µM [inhibitor, single point]",

Compound,Potency,"activity change, negative = inhibition"
Cc1ccc(NC(=O)CSc2ccc3nnc(CCNC(=O)c4ccccc4)n3n2)c(C)c1,inactive,
Clc1ccc(Cn2ncc3c(N4CCN(c5ccccc5)CC4)ncnc32)cc1,"inconclusive: 2.82 µM [inhibitor, full curve, poor fit]",
COc1ccc(Cn2c(O)c(/C=N/NC(=O)c3cccnc3)c3ccccc3c2=O)cc1,"inconclusive: 15 µM [inhibitor, partial curve, poor fit]",
c1ccc2c(c1)nc(N1CCOCC1)c1ccccc12,,inactive: 4.15% [at 11.3 µM]
CCCCc1oc2ccccc2c1C(=O)c1cc(I)c(OCCN(CC)CC)c(I)c1,"inconclusive: 24.3 µM [inhibitor, partial curve] and active: 28.2 µM",
CC(=O)c1cccc(-c2csc3ncnc(Sc4nnnn4C)c23)c1,active: 6.31 µM,
CN(Cc1cnc2nc(N)nc(N)c2n1)c1ccc(C(=O)NC(CCC(=O)O)C(=O)O)cc1 (stereo not given),"inconclusive: 2.82 µM [inhibitor, full curve]",
O=C(NC(c1ccc(-c2ccccc2)cc1)c1cnccn1)C1CCN(CCOc2ccc(F)cc2)CC1 (stereo not given),"inconclusive: 39.8 µM [inhibitor, single point]",
O=C(CCN1CCC(c2ccccc2)C1)c1cccs1 (stereo not given),"inconclusive: 39.8 µM [inhibitor, single point]",
CCOC(=O)[C@]12CCCC=C1N(Cc1cccc3ccccc13)C(=O)[C@H](CC(=O)NCCc1ccccc1OC)C2,inactive,
NC(=S)NN=C1CCCCCCCCCC1,"inconclusive: 31.6 µM [inhibitor, single point]",
COc1cccc(CNC(=O)c2nnn(CC(=O)Nc3ccc(C)c(C)c3)c2N)c1,"inconclusive: 39.8 µM [inhibitor, single point]",
CCC(=O)c1ccc(OCC(=O)Nc2ccccc2C(=O)N2CCCCC2)cc1,inactive,
CCCC(=O)Nc1ccc(Sc2ccc([N+](=O)[O-])cc2)cc1,"inconclusive: 12.6 µM [inhibitor, partial curve]",
COc1ccc(NC(=O)CCSc2nc(-c3ccco3)cc(C(F)(F)F)n2)cc1OC,inactive,
O=C(O)c1cccc(NC(=S)N/N=C/c2cccc(O)c2)c1,"inconclusive: 29.9 µM [inhibitor, partial curve, poor fit]",
Cn1c(C(=O)NC2CCCCCC2)cc2c(=O)n(C)c3ccccc3c21,inactive,
COc1cccc(CN2CCN(c3ncccn3)CC2)c1OC,inactive,
Cc1oc(-c2ccccc2Cl)nc1Cn1cccc1C1=NC(c2ccccc2)CO1 (stereo not given),inactive,
Cc1ccc(C(=O)CSc2nnc(CNc3ccc(C)cc3C)o2)cc1,"inconclusive: 31.6 µM [inhibitor, single point]",
CCOc1ccc(-c2csc(Cn3c(CN4CCN(C)CC4)nc4ccccc4c3=O)n2)cc1,"inconclusive: 20 µM [inhibitor, partial curve, poor fit]",

# — PubChem BioAssay AID1745845 (National Center for Advancing Translational Sciences (NCATS), 2022)
